Reference: PubChem BioAssay AID445 (National Center for Advancing Translational Sciences (NCATS), 2006)
In all, about 110,000 compounds went through this assay and about 40 (0.04%) were called active. This list was built around the results that the source calls inconclusive (neither active nor inactive); the mix of calls is not that of the screen. Calls follow the shape of the dose curve; as a rule, active = well fitted curve in the direction sought with a large enough effect in the signal ratio (not every such curve was filed as active); inconclusive = small, poorly fitted or top-dose-only effect, or a change in a side signal; inactive = flat fitted curve, though single readings scatter; the % refers to the signal ratio. Potencies of inconclusive entries are doubtful fits and often do not repeat.

Assay: IkB Signaling;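 as to IkBa stabilization activation: 0% = basal untreated cells and 100% = reference inhibitor full response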
Settings: ABC-DLBCL IkBa-CBG/CBR dual luciferase ratio (green luciferase fused to IkBa over red control in OCI-Ly3 lymphoma cells), 4 h; IkBa stabilization activation: at 57.1 µM (top of the series), scaled: untreated 0%, proteasome inhibitor 100% unless noted
Procedure, shortened: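 Luminescence ratio of IκBα-fused green versus native red beetle luciferase in OCI-Ly3 cells, 4 h post-doxycycline with compound; red signal alone, scaled from basal (0%) to zero light (-100%), flagged nonspecific or cytotoxic effects.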
Potency is read from the fitted curve at half-maximal effect.

Compound	IkBa stabilization activation	Potency
O=C(Nc1ccc2oc(-c3ccccc3F)nc2c1)c1cncc(Br)c1	inactive	
CCc1cccc(NC(=O)CSC2=Nc3ccccc3N=C(c3ccc(F)cc3)C2)c1	inconclusive: 3.6% [signal inhibitor]	
O=C(CSc1nnc(CNC(=O)c2cccc(F)c2)n1-c1ccccc1)Nc1ccccc1F	inconclusive: 1.61% [signal inhibitor]	
COc1ccc(Nc2nc(-c3ccc(C)cc3)nc3ccccc23)c(OC)c1	inconclusive: 3.18% [signal inhibitor]	
CCCCCn1c(C(C)NC(=O)c2ccccc2)nc2ccccc21 (centres undefined)	inconclusive: -1.88% [signal inhibitor]	
CCOC(=O)COc1cccc2c(=O)n(CC(=O)NCc3ccc4c(c3)OCO4)ccc12	inactive	
CSc1nnc2c3cc(F)ccc3n(Cc3ccccc3)c2n1	inactive	
Cc1ccc2[nH]c(=O)c(CN(Cc3ccc4c(c3)OCO4)Cc3nnnn3Cc3ccco3)cc2c1	inconclusive: 10.7% [signal inhibitor]	
CCOc1cc(CNC(=O)C2COc3ccccc3C2)cc(OCC)c1OCC (centres undefined)	inconclusive: -0.889% [signal inhibitor]	
Cc1ccc(CCNC(=O)CS(=O)Cc2nc(-c3cccc(C)c3)oc2C)cc1 (centres undefined)	inactive	
CCOc1ccc(-c2ccc(NS(=O)(=O)c3ccc(C)cc3)cc2)nn1	inconclusive: 0.0447% [signal inhibitor]	
Cc1cccn2c(=O)c(/C=C(\C#N)c3nc4ccccc4[nH]3)c(Oc3ccc(C(C)(C)C)cc3)nc12	inconclusive: 4.29% [signal inhibitor]	
COc1ccc(CCCc2nnc(SCC(=O)Nc3ccc(C)cc3)o2)cc1	inactive	
Nc1nonc1C(=O)NCCNCc1cc(Br)ccc1OCc1ccc(F)cc1	inconclusive: -2.25% [signal inhibitor]	
O=C(CCc1nc(-c2cccs2)no1)Nc1cccc([N+](=O)[O-])c1	inconclusive: -1.16% [signal inhibitor]	
Cc1ccc(C)c(N2CCN(C(c3ccccc3)c3nnc(-c4ccccc4F)o3)CC2)c1 (centres undefined)	inconclusive: 8.13% [signal inhibitor]	
O=C(CSc1nnc2sc3ccccc3n12)c1ccco1	inactive	
O[C@@H](C1=C/C(=C\c2ccncc2)c2ccccc21)c1ccncc1	inconclusive: 10.6% [at 11.4 µM, scaled: untreated 0%, proteasome inhibitor 100%]	
Cc1ccc(-c2nc3n(n2)C(=O)CC(c2ccc(Cl)cc2)S3)cc1 (centres undefined)	inconclusive: -4.69% [signal inhibitor]	
Cc1cnc(CNc2cc(-c3ccc(C(=O)N(C)C)cc3)ncn2)cn1	inactive: 0.338% [at 11.4 µM, scaled: untreated 0%, proteasome inhibitor 100%]	
Cc1c(C(=O)NCCc2ccccc2)oc2ccc(S(=O)(=O)N3CCC4(CC3)OCCO4)cc12	inconclusive: 1.29% [signal inhibitor]	
O=C(NCc1ccc(F)cc1)c1cc2n(n1)CCCN(Cc1ccc(F)cc1)C2=O	inconclusive: 0.794% [signal inhibitor]	
Cc1ccc(C(=O)Nc2sc3c(c2C(=O)NCc2ccco2)CCC(C(C)(C)C)C3)cc1 (centres undefined)	inconclusive: -2.89% [signal inhibitor]	

Compound	IkBa stabilization activation	Potency
Cc1ccc(C)c(N2CCN(CCCNC(=O)c3cnn(-c4ccccc4Cl)c3C3CCN(C(=O)OC(C)(C)C)CC3)CC2)c1	inconclusive: -5.94% [signal inhibitor]	
CCOc1ccc(Sc2cc(C(=O)NC(C)c3ccccc3)c3ccccc3n2)cc1 (centres undefined)	inconclusive: -1.38% [signal inhibitor]	
Cc1ccc(OCC(=O)Nc2cc3nn(-c4ccccc4)nc3cc2C)cc1	inconclusive: 5.22% [signal inhibitor]	
Cc1ccsc1CN(C(=O)COc1ccc(Br)cc1)C1CCS(=O)(=O)C1 (centres undefined)	inconclusive: 2.35% [signal inhibitor]	
Cc1ccc(C(=O)Nc2ccc(NC(=O)c3cccs3)cc2)cc1C	inconclusive: 3.51% [signal inhibitor]	
Cc1cc(Cl)ccc1NC(=O)C(=O)NCc1ccco1	inconclusive: 10.5% [signal inhibitor]	
Cc1ccc(N2C(=O)CSC23C(=O)N(CC(=O)NCc2ccccc2)c2ccccc23)cc1C (centres undefined)	inconclusive: -2.84% [signal inhibitor]	
CCCCCn1c(SCCc2ccccc2)nc2c1c(=O)[nH]c(=O)n2C	inactive	
COCCCNC(=O)c1ccc(NC(=O)c2nsc3ccccc23)cc1	inconclusive: 0.2% [signal inhibitor]	
COc1ccccc1CNC(=O)C1CCC(CNS(=O)(=O)c2ccc3c(c2)CCCC(=O)N3)CC1 (centres undefined)	inconclusive: 0.721% [signal inhibitor]	
CCc1nc(N)c(C#N)c(-c2cccnc2)c1C	inactive	
COC(=O)c1cc2sc(Cl)cc2n1CC(=O)Nc1ccc(OC)c(OC)c1OC	inconclusive: 4.38% [signal inhibitor]	
COc1ccc(CNC(=O)c2ccc(N3CCCC3)c(NC(=O)NCc3ccc(F)cc3)c2)cc1	inconclusive: 0.606% [signal inhibitor]	
Cc1ccc2c(Sc3ccc(Cl)cc3)c(C(=O)N3CCC(C)CC3)[nH]c2c1	inactive	
CS(=O)(=O)c1ccc(-c2nnc(NC(=O)c3ccc4c(c3)OCCO4)o2)cc1	inconclusive: -0.279% [signal inhibitor]	
CCC1CN(C(=O)N2CCC(C(=O)NCCN(CC)CC)CC2)c2cc(C)ccc2O1 (centres undefined)	inconclusive: 1.5% [signal inhibitor]	
CCOC(=O)N1CCN(c2c(N3CCN(c4ccccc4OC)CC3)c(=O)c2=O)CC1	inactive	
CCOc1cc(CNC(=O)c2sc3ncnc(N(C)C4CCCCC4)c3c2C)ccc1OC	inactive	
COc1ccc(CNC(=O)CCn2cccn2)cc1	inconclusive: 2.62% [signal inhibitor]	
Cc1ccc(C(C)C)c(OCC(=O)NCC2(N(C)C)CCCCC2)c1	inactive	
O=C(NCCc1ccccc1Cl)c1ccc(Cn2c(=O)c3cccn3c3cccnc32)cc1	inactive	
COc1ccc(-c2nc(C)c(CCNC(=O)C(=O)Nc3ccccc3OC)s2)cc1	inconclusive: 3.46% [signal inhibitor]	
CCc1ccc(C(=O)c2cn(CC(=O)Nc3ccc4c(c3)OCO4)c3cc(OC)c(OC)cc3c2=O)cc1	inconclusive: 2.78% [signal inhibitor]	

Compound	IkBa stabilization activation	Potency
COc1ccc(C2C(C(=O)Nc3cc(C)on3)c3ccccc3C(=O)N2C)cc1 (centres undefined)	inactive	
CCc1ccccc1NC(=O)c1c(NC(=O)c2ccccc2)sc2c1CCCC2		inconclusive: 15.8 µM [signal inhibitor, partial curve]
O=C(COc1ccc(Cl)cc1)Nc1ccc(-c2nc3ccccc3s2)c(O)c1	inactive	
Cc1ccc(C)c(N2CCN(C(=O)C3CCCN(S(=O)(=O)c4ccc5c(c4)oc(=O)n5C)C3)CC2)c1 (centres undefined)	inconclusive: 4.96% [signal inhibitor]	
COc1ccc2c(c1)Cc1sc(NC(=O)c3cccs3)nc1-2	inconclusive: 8.03% [signal inhibitor]	
COC(=O)CNc1nc(C2CC2)nc2c1nnn2Cc1ccccc1Cl	inactive	
Cc1cccc(-c2nc(CSCC(=O)N3CCN(Cc4ccc5c(c4)OCO5)CC3)c(C)o2)c1	inconclusive: 5.39% [signal inhibitor]	
COc1cc(-c2cc(OC)c3c(C)oc(C)c3c(=O)c2)ccc1OC(=O)c1ccccc1Cl	inconclusive: -0.111% [signal inhibitor]	
COc1ccc(OC)c2sc(N3CCN(C(=O)C(C)(C)C)CC3)nc12	inactive	
Cc1cc(C)c2c(=O)cc(CSCC(=O)Nc3ccccc3Cl)[nH]c2c1	inconclusive: 1.01% [signal inhibitor]	
O=C(CCCN1C(=O)CSc2ncccc21)N1CCN(c2cccc(C(F)(F)F)c2)CC1	inconclusive: 4.35% [signal inhibitor]	
Cc1ccc2nc(N3CCN(c4cccc(Cl)c4)CC3)c(-n3nc(C)cc3C)nc2c1	inactive	
Cc1cccc(Oc2nc3c(C)cccn3c(=O)c2/C=C(\C#N)c2nc3ccccc3[nH]2)c1	inactive	
Cc1cc(S(=O)(=O)C(CNC(=O)COc2ccc(Cl)cc2)c2cccs2)ccc1F (centres undefined)	inconclusive: 13.6% [signal inhibitor]	
Cc1ccc(CCNC(=O)C2CCN(Cc3nc(-c4ccccc4C)oc3C)CC2)cc1	inconclusive: -0.356% [signal inhibitor]	
c1ccc(Cc2nnc(-c3ccccc3)o2)cc1		inconclusive: 31.6 µM [rising, partial curve]
Clc1cccc(C=NC=Nc2cccc(Cl)c2)c1	inactive	
Cc1ccc(N(Cc2cc(=O)[nH]c3ccccc23)C(=O)c2ccco2)cc1	inconclusive: 1.83% [signal inhibitor]	
COc1cccc(NC(=O)C(Cc2ccccc2)NS(=O)(=O)c2ccc3c(c2)oc(=O)n3C)c1 (centres undefined)	inconclusive: 3.01% [signal inhibitor]	
Cc1coc2cc3oc(=O)c(CC(=O)NCCc4ccccc4)c(C)c3cc12	inconclusive: 0.709% [signal inhibitor]	
CCOc1ccc(NC(=O)Cn2cc(C(=O)c3ccco3)c3ccccc32)cc1	inconclusive: 3.16% [signal inhibitor]	
CCn1c(=O)cc(OCC(=O)Nc2cc(Cl)c(OC)cc2OC)c2ccccc21	inconclusive: -0.472% [signal inhibitor]	
CCOc1ccc(CCNC(=O)c2cc3c(-c4ccc(OC)c(OC)c4)nn(C)c3s2)cc1OCC	inconclusive: -0.436% [signal inhibitor]	
